# Laboratory results reported in PubChem BioAssay AID651820 (National Center for Advancing Translational Sciences (NCATS), 2012).
# Hit rate of the full screen: of about 340,000 compounds, about 12,000 (3.5%) were called active. This list was built around the results that the source calls inconclusive (neither active nor inactive); the mix of calls is not that of the screen. Calls follow the shape of the dose curve; as a rule, active = well fitted inhibition curve with a large enough effect; inconclusive = small, poorly fitted or top-dose-only effect, or another doubt; inactive = no such curve, though single readings can be large or run the other way. No potency is given beside an inconclusive call; the fits are too rough.
# Assay: qHTS Assay for Inhibitors of Hepatitis C Virus (HCV)
# Settings: Huh7.5.1 HCVcc-Cre (HCVcc is cell-culture hepatitis C virus) infection, luciferase reporter, 44 h; activity change, negative = inhibition: at 41.8 µM (top of the series) unless noted
# Method in brief: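 Luciferase read-out (15 sec integration) after a 15 min room-temperature substrate step quantifies HCVcc-Cre infection. Cells, 1,000 per well, had compound added 4 h post-plating, then virus at ~0.5 moi, and were cultured 44 h.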
# % is scaled to controls: 0 for no effect and ±100 for the full control effect; potency is read from the fitted curve at half-maximal effect; tags tell the direction and shape of the fitted curve.
Compound,Potency,"activity change, negative = inhibition"
C=C(C)COc1ccc(-c2ncncc2-c2ccccc2)c(O)c1,inactive,–
CCOC(=O)C1CCCN(C(=O)c2cc3c(=O)n(C)c4ccccc4c3n2C)C1 (stereo not drawn),inactive,–
O=C(NCCNC(=O)c1cc(Cl)ccc1Cl)c1cnccn1,inactive,–
CCN(CCCNC(=O)CSc1cc(=O)n(C)c2cc(Cl)ccc12)Cc1ccccc1,"inconclusive [inhibitor, partial curve]",–
O=C(CSc1nnc2c(n1)[nH]c1ccccc12)OCc1ccccc1,inactive,–
CC(C)(C)c1ccc(C(=O)NN2C(=O)CSC2=S)cc1,inactive,–
Cn1nnnc1SCC(=O)Nc1nn(-c2ccccc2)nc1C(N)=O,inactive,–
COC(=O)c1cc(S(=O)(=O)Nc2ccc(C)cn2)c[nH]1,"inconclusive [inhibitor, single point]",–
CCOC(=O)CN(C(=O)CSc1nnc2c(n1)[nH]c1ccc(F)cc12)c1ccccc1,inactive,–
CCOc1ccc(NC(=O)CC2C(=O)N(c3ccc(OC)cc3)C(=O)N2CCc2ccc(OC)c(OC)c2)cc1 (stereo not drawn),inactive,–
Cc1ccccc1NC(=O)CSc1n[nH]c(-c2ccccn2)n1,"inconclusive [inhibitor, single point]",–
O=C(CSc1ccc(Cl)cc1)N1CCN(c2ccc([N+](=O)[O-])cc2Cl)CC1,"inconclusive [inhibitor, single point]",–
Cc1ccc(NC(=O)Cn2c(=O)ccn(Cc3ccccc3)c2=O)cc1S(=O)(=O)N1CCOCC1,active: 11.2 µM,–
CN(Cc1nc2ccccc2c(=O)[nH]1)C(=O)c1ccc(S(=O)(=O)N(C)C)cc1,inactive,–
CCn1c(SCC(=O)NNC(=O)Cc2ccccc2)nnc1-c1ccncc1,inactive,–
CCC(C)(C)NC(=O)c1cc([N+](=O)[O-])ccc1N1CCOCC1,inactive,–
CSc1cccc(NS(=O)(=O)c2ccc(C(C)=O)cc2)c1,"inconclusive [inhibitor, partial curve]",–
CCc1nnc(NC(=O)C(CC)c2ccccc2)s1 (stereo not drawn),inactive,–
O=C(Nc1ccccn1)c1cc(-c2cccc(Cl)c2)nc2ccccc12,active: 15.8 µM,–
C=CCn1c(SCC(=O)Nc2sccc2C(N)=O)nc2ccccc2c1=O,active: 11.2 µM,–
COC(=O)c1cccc(NC(=S)NCCC2=CCCCC2)c1,active: 12.6 µM,–
COc1ccccc1CN1CC(C(=O)N2CCC(OC)CC2)CCC1=O (stereo not drawn),inactive,–
COc1cc(C(CCN2CCCC2)c2c(OC)cc(OC)c3c(C)cc(=O)oc23)cc(OC)c1OC (stereo not drawn),active: 10 µM,–
CCc1ccc(CNCc2ccc(OCC(O)CN(C)Cc3ccccc3)cc2)nc1 (stereo not drawn),active: 11.2 µM,–

Compound,Potency,"activity change, negative = inhibition"
O=c1c2ccccc2nc2n1C(CSCc1ccc(Cl)cc1Cl)CS2 (stereo not drawn),inactive,–
CCCN(CC(=O)Nc1ccccc1C)C(=O)c1oc2ccc(OCC)cc2c1C,"inconclusive [inhibitor, partial curve]",–
C/C(=N\NC(N)=S)C1=CCC2C3CC[C@H]4CC(O)CC[C@]4(C)C3CC[C@]12C (stereo partly drawn),"inconclusive [inhibitor, full curve]",–
O=C(C1CCN(S(=O)(=O)N2CCOCC2)CC1)N1CCN(c2ccc(F)cc2)CC1,"inconclusive [inhibitor, partial curve, poor fit]",–
CCOC(=O)c1cc(CC)sc1NC(=O)C(c1ccccc1)c1ccccc1,inactive,–
Cc1cc(NC(=O)c2cnn3c(C(F)F)cc(-c4ccccc4)nc23)no1,"inconclusive [inhibitor, partial curve]",–
COc1cc(/C=C/CNC[C@H]2O[C@@H](n3cnc(C(N)=O)n3)[C@H](O)[C@@H]2O)ccc1O,inactive,–
CC1CCCN(c2ccc(C(=O)NCc3cccs3)cn2)C1 (stereo not drawn),"inconclusive [inhibitor, single point]",–
CCCCNc1nc2sc3c(c2c(=O)n1-c1cccc(Cl)c1)CCN(C)C3,active: 3.98 µM,–
COc1ccc(C(C(=O)NC(C)(C)C)N(C(=O)CCC(=O)Nc2cc(C)on2)c2cc(C)cc(C)c2)cc1 (stereo not drawn),"inconclusive [inhibitor, single point]",–
CC(NS(=O)(=O)c1ccc2[nH]c(=O)c(=O)[nH]c2c1)C(=O)O (stereo not drawn),inactive,–
CC(C)[C@H](NC(=O)c1ccccc1)C(=O)Nc1ccc2c(c1)OCO2,inactive,–
Brc1ccc(CSc2nnc(-c3cccnc3)o2)cc1,inactive,–
Cc1ccc(N2C(=O)C3N=NN(CC(=O)N4N=C(c5ccccc5)CC4c4ccccc4)C3C2=O)cc1 (stereo not drawn),inactive,–
O=C(c1cc(C2CC2)nc2ccc(Br)cc12)N1N=C(C(F)F)CC1(O)C(F)F (stereo not drawn),"inconclusive [inhibitor, full curve]",–
COc1ccc(N(C(=O)/C=C/c2ccc(OC)c(OC)c2)C2=CC3CCC(C2)N3C)cc1 (stereo not drawn),"inconclusive [inhibitor, single point]",–
CC(NC(=O)CN1C(=O)NC2(CCCCCC2)C1=O)c1ccccc1 (stereo not drawn),"inconclusive [inhibitor, single point]",–
CC(C)(C)C1=CC(O)(c2ccccc2)C=C(C(C)(C)C)C1=O,–,inconclusive: -37.7% [inhibitor]
COc1cccc(C(=O)Oc2ccccc2/C=C\C(=O)c2cc3ccccc3o2)c1,"inconclusive [inhibitor, partial curve]",–
CC(OC(=O)/C=C/c1ccccc1)C(=O)Nc1cccc(C#N)c1 (stereo not drawn),"inconclusive [inhibitor, partial curve, poor fit]",–
CC[C@]12c3[nH]c4cc(CCC(=O)N(C)C)ccc4c3CCN1C(=O)[C@@H](CC(=O)NCCCn1ccnc1)C[C@@H]2C(=O)N1CCN(C(=O)C2CC2)CC1,"inconclusive [inhibitor, single point]",–
C[C@@H](C(=O)NC1CCN(Cc2ccccc2)CC1)N1C(=O)N2CCc3c([nH]c4ccccc34)[C@@]2(C)C1=O,active: 7.94 µM,–
NC(=O)C1CCCN(CC(=O)Nc2cc(S(=O)(=O)N3CCOCC3)ccc2N2CCCC2)C1 (stereo not drawn),inactive,–
CCN(CC)S(=O)(=O)c1ccc(N2CCCCC2)c(NC(=O)/C=C/c2cc(OC)c(OC)c(OC)c2)c1,"inconclusive [inhibitor, partial curve]",–
